According to the supplement of paper PMC9174493:
Structures can show the parent of a compound that is named as a salt. Some of the results follow. Single values of this set are uncertain. Values with irradiation are relative to irradiated vehicle.

Tested on: A549-Dual
Assay: ISRE reporter (Lucia luciferase) activity, viability-corrected, relative to vehicle (fold change vs vehicle); higher = more activation of STING-IRF / NF-kB immune response reporter
Settings: 10 µM; irradiation: 8 Gy/4 fr

SMILES | ISRE reporter
CCC(=O)OCC(=O)C1(OC(=O)CC)C(C)CC2C3CCC4=CC(=O)C=CC4(C)C3(Cl)C(O)CC21C (centres undefined) [Beclomethasone dipropionate] | 0.0641
CC(=O)Nc1ccc(OC(=O)c2ccccc2OC(C)=O)cc1 [Benorylate] | 0.774
Nc1ccccc1NC(=O)c1ccc(CNC(=O)OCc2cccnc2)cc1 [Entinostat (MS-275)] | 0.724
COc1cc(N2CCC(N3CCN(C)CC3)CC2)ccc1Nc1ncc(Cl)c(Nc2ccccc2P(C)(C)=O)n1 | 1.08
Cc1c(-c2ccc(-c3ccccc3F)cc2)nc2ccc(F)cc2c1C(=O)O [Brequinar] | 0.927
CCC1/C=C(\C)CC(C)CC(OC)C2OC(O)(C(=O)C(=O)N3CCCCC3C(=O)OC(/C(C)=C/C3CCC(Cl)C(OC)C3)C(C)C(O)CC1=O)C(C)CC2OC (centres undefined) [Pimecrolimus] | 1.33
COC(=O)/C=C/C(=O)OC [Dimethyl Fumarate] | 0.686
Cc1cc(Nc2ncc(Cl)c(Nc3ccccc3S(=O)(=O)C(C)C)n2)c(OC(C)C)cc1C1CCNCC1 [Ceritinib (LDK378)] | 1.22
Nc1nc(Cl)nc2c1ncn2C1CC(O)C(CO)O1 (centres undefined) [Cladribine] | 0.497
CC12CCC(=O)C=C1CCC1C2C(O)CC2(C)C1CCC2(O)C(=O)CO (centres undefined) [Hydrocortisone] | 0.071
Cc1coc2c1C(=O)C(=O)c1c-2ccc2c(C)cccc12 [Tanshinone I] | 0.536
Cn1cnc([N+](=O)[O-])c1Sc1ncnc2nc[nH]c12 [Azathioprine] | 0.444
O=c1ccc2cc3ccoc3cc2o1 [Psoralen] | 0.839
CCC(=O)NS(=O)(=O)c1ccc(-c2c(-c3ccccc3)noc2C)cc1 [Parecoxib] | 0.837
COc1ccc(-c2ccc3cc(C(=O)O)ccc3c2)cc1C12CC3CC(CC(C3)C1)C2 [Adapalene] | 0.484
CCC(C(=O)O)c1ccc(N2Cc3ccccc3C2=O)cc1 (centres undefined) [Indobufen] | 1.09
COC1CC2CCC(C)C(O)(O2)C(=O)C(=O)N2CCCCC2C(=O)OC(C(C)CC2CCC(O)C(OC)C2)CC(=O)C(C)/C=C(\C)C(O)C(OC)C(=O)C(C)CC(C)/C=C/C=C/C=C/1C (centres undefined) [Rapamycin (Sirolimus)] | 0.933
COc1ccc(C2CNC(=O)C2)cc1OC1CCCC1 (centres undefined) [Rolipram] | 1.06
Nc1nc(N)c2nc(-c3ccccc3)c(N)nc2n1 [Triamterene] | 0.106
CN(C)CCN1C(=O)c2cccc3cc(N)cc(c23)C1=O [Amonafide] | 0.337
CN1CCCC1CCOC(C)(c1ccccc1)c1ccc(Cl)cc1.O=C(O)/C=C/C(=O)O (centres undefined) [Clemastine Fumarate] | 1.12
CC12C=CC(=O)C=C1CCC1C3CC(O)C(O)(C(=O)CO)C3(C)CC(O)C12F (centres undefined) [Triamcinolone] | 0.0583
CC1CC2C3CCC4=CC(=O)C=CC4(C)C3C(=O)CC2(C)C1(O)C(=O)CO (centres undefined) [Meprednisone] | 0.391
CCS(=O)(=O)O.COC(=O)c1ccc2c(c1)NC(=O)/C2=C(\Nc1ccc(N(C)C(=O)CN2CCN(C)CC2)cc1)c1ccccc1 [Nintedanib Ethanesulfonate Salt] | 1.26
CCCCCCCCCCCCCCCCCCOP(=O)([O-])OC1CC[N+](C)(C)CC1 [Perifosine (KRX-0401)] | 0.58
CCC1(O)CC2CN(CCc3c([nH]c4ccccc34)C(C(=O)OC)(c3cc4c(cc3OC)N(C=O)C3C(O)(C(=O)OC)C(OC(C)=O)C5(CC)C=CCN6CCC43C65)C2)C1 (centres undefined) [Vincristine] | 0.0625
Cl.Nc1ccn(C2OC(CO)C(O)C2O)c(=O)n1 (centres undefined) [Cytarabine hydrochloride] | 0.501
CC(=O)OC(C)C(C)C(=O)OCC12C3CC4(C)C(=CCC5C6(C)CCC(OC7OC(C(=O)[O][Na])C(OC8OC(CO)C(O)C(O)C8O)C(O)C7OC7OCC(O)C(O)C7O)C(C)(CO)C6CCC54C)C1CC(C)(C)C(O3)C2O (centres undefined) [Sodium Aescinate] | 1.09
CCC(=O)OC1(C(=O)SCF)C(C)CC2C3CC(F)C4=CC(=O)C=CC4(C)C3(F)C(O)CC21C (centres undefined) [Fluticasone propionate] | 0.0452
